Data: the supplement of paper PMC11876631
± gives the standard deviation of the averaged measurements. Laboratory Escherichia coli strains with one amino-acid change in an essential protein, pooled on minimal glucose agar with carbenicillin or gentamicin at twice the control MIC (plus kanamycin and chloramphenicol for the plasmids), 48 h. Fold change of barcode share against drug-free plates; higher = less susceptible. Active = above 20 in both replicates (the paper's putatively resistant). '<' = one read or none on drug, '>' = one read or none on a drug-free plate. Shares are relative, so most strains fall below 1 when a few take over. Listed are strains with at least 15 reads on both drug-free plates, and hits; most hits rest on fewer reference reads. Replicate rank correlation about 0.5. Edits are read from barcodes.

B1: msbA L16Q (protein)
chain: MHNDKDLSTWQTFRRQWPTIAPFKAGLIVAGVALILNAASDTFMLSLLKPLLDDGFGKTDRSVLVWMPLVVIGLMILRGITSYVSSYCISWVSGKVVMTMRRRLFGHMMGMPVSFFDKQSTGTLLSRITYDSEQVASSSSGALITVVREGASIIGLFIMMFYYSWQLSIILIVLAPIVSIAIRVVSKRFRNISKNMQNTMGQVTTSAEQMLKGHKEVLIFGGQEVETKRFDKVSNRMRLQGMKMVSASSISDPIIQLIASLALAFVLYAASFPSVMDSLTAGTITVVFSSMIALMRPLKSLTNVNAQFQRGMAACQTLFTILDSEQEKDEGKRVIERATGDVEFRNVTFTYPGRDVPALRNINLKIPAGKTVALVGRSGSGKSTIASLITRFYDIDEGEILMDGHDLREYTLASLRNQVALVSQNVHLFNDTVANNIAYARTEQYSREQIEEAARMAYAMDFINKMDNGLDTVIGENGVLLSGGQRQRIAIARALLRDSPILILDEATSALDTESERAIQAALDELQKNRTSLVIAHRLSTIEKADEIVVVEDGVIVERGTHNDLLEHRGVYAQLHKMQFGQ
B2: msbA I28A (protein)
chain: MHNDKDLSTWQTFRRLWPTIAPFKAGLAVAGVALILNAASDTFMLSLLKPLLDDGFGKTDRSVLVWMPLVVIGLMILRGITSYVSSYCISWVSGKVVMTMRRRLFGHMMGMPVSFFDKQSTGTLLSRITYDSEQVASSSSGALITVVREGASIIGLFIMMFYYSWQLSIILIVLAPIVSIAIRVVSKRFRNISKNMQNTMGQVTTSAEQMLKGHKEVLIFGGQEVETKRFDKVSNRMRLQGMKMVSASSISDPIIQLIASLALAFVLYAASFPSVMDSLTAGTITVVFSSMIALMRPLKSLTNVNAQFQRGMAACQTLFTILDSEQEKDEGKRVIERATGDVEFRNVTFTYPGRDVPALRNINLKIPAGKTVALVGRSGSGKSTIASLITRFYDIDEGEILMDGHDLREYTLASLRNQVALVSQNVHLFNDTVANNIAYARTEQYSREQIEEAARMAYAMDFINKMDNGLDTVIGENGVLLSGGQRQRIAIARALLRDSPILILDEATSALDTESERAIQAALDELQKNRTSLVIAHRLSTIEKADEIVVVEDGVIVERGTHNDLLEHRGVYAQLHKMQFGQ
B3: msbA I28W (protein)
chain: MHNDKDLSTWQTFRRLWPTIAPFKAGLWVAGVALILNAASDTFMLSLLKPLLDDGFGKTDRSVLVWMPLVVIGLMILRGITSYVSSYCISWVSGKVVMTMRRRLFGHMMGMPVSFFDKQSTGTLLSRITYDSEQVASSSSGALITVVREGASIIGLFIMMFYYSWQLSIILIVLAPIVSIAIRVVSKRFRNISKNMQNTMGQVTTSAEQMLKGHKEVLIFGGQEVETKRFDKVSNRMRLQGMKMVSASSISDPIIQLIASLALAFVLYAASFPSVMDSLTAGTITVVFSSMIALMRPLKSLTNVNAQFQRGMAACQTLFTILDSEQEKDEGKRVIERATGDVEFRNVTFTYPGRDVPALRNINLKIPAGKTVALVGRSGSGKSTIASLITRFYDIDEGEILMDGHDLREYTLASLRNQVALVSQNVHLFNDTVANNIAYARTEQYSREQIEEAARMAYAMDFINKMDNGLDTVIGENGVLLSGGQRQRIAIARALLRDSPILILDEATSALDTESERAIQAALDELQKNRTSLVIAHRLSTIEKADEIVVVEDGVIVERGTHNDLLEHRGVYAQLHKMQFGQ
B4: mreC V162D (protein)
chain: MKPIFSRGPSLQIRLILAVLVALGIIIADSRLGTFSQIRTYMDTAVSPFYFVSNAPRELLDGVSQTLASRDQLELENRALRQELLLKNSELLMLGQYKQENARLRELLGSPLRQDEQKMVTQVISTVNDPYSDQVVIDKGSVNGVYEGQPVISDKGVVGQVDAVAKLTSRVLLICDATHALPIQVLRNDIRVIAAGNGCTDDLQLEHLPANTDIRVGDVLVTSGLGGRFPEGYPVAVVSSVKLDTQRAYTVIQARPTAGLQRLRYLLLLWGADRNGANPMTPEEVHRVANERLMQMMPQVLPSPDAMGPKLPEPATGIAQPTPQQPATGNAATAPAAPTQPAANRSPQRATPPQSGAQPPARAPGGQ
B5: asd L176W (protein)
chain: MKNVGFIGWRGMVGSVLMQRMVEERDFDAIRPVFFSTSQLGQAAPSFGGTTGTLQDAFDLEALKALDIIVTCQGGDYTNEIYPKLRESGWQGYWIDAASSLRMKDDAIIILDPVNQDVITDGLNNGIRTFVGGNCTVSLMLMSLGGLFANDLVDWVSVATYQAASGGGARHMRELWTQMGHLYGHVADELATPSSAILDIERKVTTLTRSGELPVDNFGVPLAGSLIPWIDKQLDNGQSREEWKGQAETNKILNTSSVIPVDGLCVRVGALRCHSQAFTIKLKKDVSIPTVEELLAAHNPWAKVVPNDREITMRELTPAAVTGTLTTPVGRLRKLNMGPEFLSAFTVGDQLLWGAAEPLRRMLRQLA

target: Escherichia coli (laboratory strain); assay: barcode share on antibiotic plates over drug-free plates; higher = less susceptible; settings: antibiotic: carbenicillin; 2× MIC (3.1 µg/mL)
Method: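 A pool of E. coli strains, each edited to carry one amino-acid change in an essential protein, was grown for 48 h on minimal glucose agar with or without antibiotic; strain barcodes were sequenced; mean of two replicates.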

Row | Protein | fold change of barcode share
1 | B1 | 0.286 ± 0.088
2 | B2 | 0.271 ± 0.034
3 | B3 | 0.256 ± 0.082
4 | B4 | 0.213 ± 0.011
5 | B5 | 0.461 ± 0.059

same assay, conditions: antibiotic: gentamicin; 2× MIC (MIC 0.45 µg/mL)

Row | Protein | fold change of barcode share
6 | B2 | 0.0135 ± 0.001
7 | B3 | 0.0248 ± 0.01
8 | B4 | 0.00436 ± 0.00056
9 | B5 | 0.014 ± 0.013
